According to the supplement of paper PMC3334620:
Whole data set: some 33,000 sequences, median “E-score (-0.5 to 0.5)” near -0.04, cut for the highest 2% near 0.36. Some of the results follow.

Each sequence was assayed against T1, Hmlalpha2 (UniProt P0CY09) (assay: PBM E-score (8-mer binding enrichment) (E-score (-0.5 to 0.5)); higher = stronger / more preferred TF binding; most listed sequences are background and not binding sites). Settings: protein concentration: 200 nM; construct: GST-full length.
T1 sequence: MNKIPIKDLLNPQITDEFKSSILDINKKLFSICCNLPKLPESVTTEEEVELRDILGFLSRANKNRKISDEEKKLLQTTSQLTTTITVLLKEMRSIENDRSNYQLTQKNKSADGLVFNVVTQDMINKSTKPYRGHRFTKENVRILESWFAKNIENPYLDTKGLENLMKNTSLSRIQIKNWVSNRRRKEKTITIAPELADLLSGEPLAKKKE
Method in brief: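 Detection of bound protein used fluorescent anti-GST, with scans normalised by masliner. The proteins were GST-tagged yeast transcription factors applied at about 100-200 nM to universal all-10-mer Agilent arrays made double-stranded by primer extension. Each ungapped eight-base word, pooled with its reverse complement, was scored with an E-score from the Universal PBM Analysis Suite.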

Row | Sequence | PBM E-score
1 | CCTCTTCC | -0.376
2 | ACTTGTAC | 0.12
3 | GACGAACC | -0.14
4 | ATGGTAGC | -0.037
5 | ACAGTGAG | -0.0397
6 | ACCGGCAC | 0.0874
7 | CTTAGACC | 0.0601
8 | GCTCACTA | -0.0311
9 | CCTTCCAC | -0.228
10 | CTTAGCTC | -0.112
11 | GGGCATTA | -0.0316
12 | AATTACCT | 0.213
13 | AAAATCTT | 0.0527
14 | AGAGGGAG | -0.249
15 | TGACCCCA | -0.157
16 | ACGGGCTG | -0.209
17 | AGTTAACG | 0.248
18 | GGCTAGCC | -0.5
19 | TCGGTAGA | -0.0018
20 | CAGTCTAA | -0.0759
21 | GTCGTTTA | 0.193
22 | CAGGTAGA | -0.00202

Row | Sequence | PBM E-score
23 | CTTCCATA | -0.184
24 | CAGGAAGG | -0.148
25 | AGATGATG | -0.0579
26 | ACCCCAGT | -0.103
27 | GGCCGTTA | -0.159
28 | GGGGGGCA | -0.328
29 | AAGCTCCT | -0.106
30 | AAAAATCG | -0.141
31 | AAACGGGA | -0.169
32 | GTGCAGGA | 0.0252
33 | AAGTTCCG | -0.0355
34 | TACTGAGA | -0.0602
35 | ACTTCTTA | 0.106
36 | GCCCCGAA | -0.234
37 | CTATGATA | -0.0313
38 | CAGCTCTA | -0.174
39 | AAAGCAGG | 0.0392
40 | GGTTGGTA | 0.114
41 | GCATCCCA | -0.287
42 | CATGGGGG | -0.261
43 | TGCCGGCA | 0.135
44 | CAGCGCGA | -0.14

Row | Sequence | PBM E-score
45 | AGCGATCA | -0.0427
46 | GGAGTAAC | -0.237
47 | GGTCTCTA | -0.281
48 | AGCATAGC | 0.0169
49 | CGCTACCG | -0.0865
50 | CATTGCGG | -0.0412
51 | CTGTGTGA | 0.247
52 | AACGACCT | -0.123
53 | TTCATGAA | -0.00198
54 | GCGTGTGA | 0.284
55 | CGCTTATC | -0.0319
56 | ACAACCTC | 0.12
57 | ACCCGTAG | -0.317
58 | CAGGGGCG | -0.0915
59 | ATCGCAAG | -0.145
60 | GGTGTACA | 0.211
61 | CTAAAGTA | -0.051
62 | CCAGTAAC | -0.0298
63 | AACGCCTC | -0.1
64 | ATTGCCGA | 0.0146
65 | CTATATAG | 0.0815
66 | AGCCTGCA | -0.161

Row | Sequence | PBM E-score
67 | CCAATTTA | 0.198
68 | CTTCCCCA | -0.246
69 | AGAATGGA | -0.0999
70 | GTTATATA | 0.217
71 | CCGCGCGA | -0.0227
72 | TGTACGAA | 0.185
73 | ATCAACTC | 0.104
74 | CTCGAGAC | 0.0127
75 | CGGGGCGA | -0.21
76 | AGTACGAT | -0.051
77 | CAGTAGGC | -0.119
78 | AACCCAAG | -0.0823
79 | AAGCGGCA | -0.118
80 | GAAGCAAA | 0.156
81 | AAGTTGCA | 0.109
82 | GGGGCCCC | -0.341
83 | CTTCCGAC | -0.0469
84 | GTTTCGTA | 0.171
85 | ACCAACTC | -0.0318
86 | ACGCCAGT | -0.0593
87 | AGTCTAAA | -0.0738
88 | CTTATACC | -0.0361

Row | Sequence | PBM E-score
89 | CCAGAAAC | -0.0471
90 | ACCTCCGT | 0.0706
91 | GTACGTTA | 0.294
92 | CACTTAAC | 0.189
93 | ACAATCAG | 0.00817
94 | GGGTCTTA | -0.214
95 | CACGGCAC | 0.128
96 | CTTGTGGC | -0.221
97 | ATTATAAT | 0.157
98 | TAGATTAA | 0.209
99 | CGGCTGTC | -0.238
100 | ACACTAAT | 0.0478
101 | AACAATCC | 0.121
102 | CAATCAAA | 0.0602
103 | CCCCTGTA | 0.034
104 | AGACTCTA | -0.145
105 | CGAGCGTC | -0.25
106 | CCTTCGAA | -0.261
107 | CCCGGCTC | -0.243
108 | ATTATTGC | 0.184
109 | CCGCCCGC | -0.173
